Assay results published in patent US20100249082A1, “MODULATORS OF HYPOXIA INDUCIBLE FACTOR-1 AND RELATED USES” (Bionaut Pharmaceuticals INC., priority 2007, published 2010).
Read-outs that look alike come from different tables or passages of the source. At least one read-out could not be matched to a standard name with certainty.

Biological target: T1, Na^+, K^+-ATPase (Homo sapiens, UniProt P05023)
T1 construct: The HEK-293 cell line endogenously expressing Na^+, K^+-ATPase; endogenous in cells; host or cells: HEK-293
Format: cell-based

[1] = Dose Log[drug](M) −4.3, DMSO 1.0%
[2] = Dose Log[drug](M) −5.0, DMSO 1.0%
[3] = Dose Log[drug](M) −5.3, DMSO 1.0%
[4] = Dose Log[drug](M) −6.0, DMSO 1.0%
[5] = Dose Log[drug](M) −6.3, DMSO 1.0%
[6] = Dose Log[drug](M) −7.0, DMSO 1.0%
[7] = Dose Log[drug](M) −7.3, DMSO 1.0%
[8] = Dose Log[drug](M) −8.0, DMSO 1.0%
[9] = HEK-293, dose 0.01 uM, Log[drug](M) −8.0
[10] = HEK-293, dose 0.1 uM, Log[drug](M) −7.0
[11] = HEK-293, dose 0.1 uM, Log[drug](M) −7.3
[12] = HEK-293, dose 1 uM, Log[drug](M) −6.0
[13] = HEK-293, dose 1 uM, Log[drug](M) −6.3
[14] = HEK-293, dose 5 uM, Log[drug](M) −5.3
[15] = HEK-293, dose 10 uM, Log[drug](M) −5.0
[16] = HEK-293, dose 50 uM, Log[drug](M) −4.3
[17] = Dose Log[drug](M) −4.0, DMSO 1.0%

Compound | Inhibition (%) [1] [%] | Normalized Uptake (%) [1] [%] | Inhibition (%) [2] [%] | Normalized Uptake (%) [2] [%] | Inhibition (%) [3] [%] | Normalized Uptake (%) [3] [%] | Inhibition (%) [4] [%] | Normalized Uptake (%) [4] [%] | Inhibition (%) [5] [%] | Normalized Uptake (%) [5] [%] | Inhibition (%) [6] [%] | Normalized Uptake (%) [6] [%] | Normalized Uptake (%) [9] [%] | Normalized Uptake (%) [10] [%] | Normalized Uptake (%) [11] [%] | Normalized Uptake (%) [12] [%] | Normalized Uptake (%) [13] [%] | Normalized Uptake (%) [14] [%] | Normalized Uptake (%) [15] [%] | Normalized Uptake (%) [16] [%] | further results
C[C@@H]1O[C@@H](O[C@@H]2C=C3CC[C@@H]4[C@H](CC[C@]5(C)[C@@H](c6ccc(=O)oc6)CC[C@]45O)[C@@]3(C)CC2)[C@H](O)[C@H](O)[C@H]1O [BNC4, proscillaridin, reference compound] | 100.0 | 0.0 | 95.2 | 4.8 | 91.6 | 8.4 | 75.8 | 24.2 | 59.3 | 40.7 | 41.1 | 58.9 |  |  |  |  |  |  |  |  | Inhibition (%) [7]: 17.7%; Normalized Uptake (%) [7]: 82.3%; Inhibition (%) [8]: 0.0%; Normalized Uptake (%) [8]: 100.0%
C[C@]12CCC(=NOCCN3CCOCC3)C=C1CCC1C2CC[C@]2(C)[C@@H](c3ccc(=O)oc3)CC[C@]12O (some centres unmarked) [BP245, 3-[2-(Morpholinoethoxy)imino]-scillarinone] |  |  |  |  |  |  |  |  |  |  |  |  | 103.6 | 81.4 | 95.3 | 47.3 | 67.4 | 10.8 | 9.0 | 3.1 | 
C[C@]12CCC(=NOCCCN3CCCCC3)C=C1CCC1C2CC[C@]2(C)[C@@H](c3ccc(=O)oc3)CC[C@]12O (some centres unmarked) [BP246, 3-[3-(Piperidinopropoxy)imino]-scillarinone] |  |  |  |  |  |  |  |  |  |  |  |  | 98.7 | 69.8 | 84.6 | 18.5 | 49.5 | 1.0 | 1.2 | −2.7 | 
C[C@]12CCC(=NOCCCCN3CCCCC3)C=C1CCC1C2CC[C@]2(C)[C@@H](c3ccc(=O)oc3)CC[C@]12O (some centres unmarked) [BP247, 3-[4-(Piperidinobutoxy)imino]-scillarinone] |  |  |  |  |  |  |  |  |  |  |  |  | 91.2 | 49.2 | 75.2 | 16.5 | 27.3 | 2.5 | 3.8 | −2.3 | 
C[C@]12CCC(=NOCCCCCN3CCCCC3)C=C1CCC1C2CC[C@]2(C)[C@@H](c3ccc(=O)oc3)CC[C@]12O (some centres unmarked) [BP248, 3-[5-(Piperidinopentoxy)imino]-scillarinone] |  |  |  |  |  |  |  |  |  |  |  |  | 56.6 | 55.4 | 56.1 | 49.6 | 53.5 | 25.5 | 5.0 | −13.1 | 
C[C@]12CCC(=NOCCN3CCC(Cc4ccccc4)CC3)C=C1CCC1C2CC[C@]2(C)[C@@H](c3ccc(=O)oc3)CC[C@]12O (some centres unmarked) [BP249, 3-[2-(4-Benzylpiperidinoethoxy)imino]-scillarinone] | 100.0 | 0.1 | 60.1 | 37.5 | 47.2 | 49.6 | 19.4 | 75.7 | 9.0 | 85.5 | 6.1 | 88.2 |  |  |  |  |  |  |  |  | Inhibition (%) [7]: 2.7%; Normalized Uptake (%) [7]: 91.4%; Inhibition (%) [8]: 0.0%; Normalized Uptake (%) [8]: 93.9%
C[C@H]1O[C@@H](O[C@H]2[C@@H](O)C[C@H](O[C@H]3[C@@H](O)C[C@H](O[C@H]4CC[C@@]5(C)[C@H](CC[C@@H]6[C@@H]5CC[C@]5(C)[C@@H](C7=CC(=O)OC7)CC[C@]65O)C4)O[C@@H]3C)O[C@@H]2C)C[C@H](O)[C@@H]1O [Digitoxin, reference compound] | 92.6 | 7.4 | 90.9 | 9.1 | 78.1 | 21.9 | 50.1 | 49.9 | 33.5 | 66.5 | 11.7 | 88.3 |  |  |  |  |  |  |  |  | Inhibition (%) [17]: 100.0%; Normalized Uptake (%) [17]: 0.0%; Inhibition (%) [7]: 0.0%; Normalized Uptake (%) [7]: 100.0%
